Test results: PubChem BioAssay AID624418 (National Center for Advancing Translational Sciences (NCATS), 2012)
Among all 410,000 compounds or so, about 530 (0.13%) were called active. This list was built around the results that the source calls inconclusive (neither active nor inactive); the mix of calls is not that of the screen. Calls follow the shape of the dose curve; as a rule, active = well fitted inhibition curve with a large enough effect; inconclusive = small, poorly fitted or top-dose-only effect, or another doubt; inactive = no such curve, though single readings can be large or run the other way. Potencies of inconclusive entries are doubtful fits and often do not repeat.

Experiment: qHTS of GLP-1 Receptor Inverse Agonists: Cytotox Screen
Details: HEK293 cAMP-luciferase reporter cells, luminescence, 24 h; series mostly up to 38.3 µM
Method in brief: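 1536-well qHTS counterscreen of the MLSMR; 200 cells/uL, 12 h pre-incubation, 23 nL cpd, 24 h at 37 deg C 5% CO2, luciferase detection reagent, 12 min RT, luminescence. Inhibition = undesired.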
Potency is read from the fitted curve at half-maximal effect.

Q: For `COc1ccc(NS(=O)(=O)c2cccc(C(=O)NCc3ccccc3CN3CCCC3)c2)cc1`, which Potency is on record?
A: inconclusive: 7.94 µM [inhibitor, partial curve, poor fit]

Q: With `N#C/C(=C\C=C\c1ccccc1[N+](=O)[O-])C(=O)NCc1ccccc1` as the compound, how does the Potency read?
A: inconclusive: 12.6 µM [inhibitor, single point]

Q: For `O=C(CCl)NC(Cc1ccccc1)C(=O)OCC(=O)c1ccc(-c2ccccc2)cc1` (stereo unspecified), which Potency is on record?
A: inconclusive: 20 µM [inhibitor, partial curve, poor fit]

Q: For `COc1cc(/C=C/C(=O)CC(=O)/C=C/c2ccc(O)c(OC)c2)ccc1O`, which Potency is on record?
A: inconclusive: 7.94 µM [inhibitor, partial curve]

Q: For `Cc1ccccc1C1=C/C(=C(\SS/C(C(=O)c2ccc(OCC(=O)O)c(Cl)c2Cl)=C2\C=C(c3ccccc3C)SS2)C(=O)c2ccc(OCC(=O)O)c(Cl)c2Cl)SS1`, which Potency is on record?
A: inconclusive: 11.2 µM [inhibitor, single point]

Q: With `CCOC(=O)c1cc(C#N)c(NCc2ccccc2)nc1C` as the compound, how does the Potency read?
A: inactive

Q: With `CC[n+]1c(/C=C/C=C/N(C(C)=O)c2ccccc2)sc2ccccc21` as the compound, how does the Potency read?
A: inconclusive: 11.2 µM [inhibitor, single point]

Q: With `CC(C)(C)c1ccc(-c2nc(C#N)c(NCc3ccncc3)o2)cc1` as the compound, how does the Potency read?
A: inconclusive: 14.1 µM [inhibitor, partial curve, poor fit]

Q: With `N=c1n(CC(=O)c2ccc(Br)cc2)c2ccccc2n1Cc1ccccc1` as the compound, how does the Potency read?
A: inconclusive: 20 µM [inhibitor, single point]

Q: With `O=C(CN1C(=O)COc2ccc(S(=O)(=O)NC3CCCC3)cc21)Nc1ccc(Cl)cc1F` as the compound, how does the Potency read?
A: inactive

Q: Which Potency does the source give for `CCOC(=O)c1c(C)oc2ccc(N(C(=O)c3ccncc3)S(=O)(=O)c3ccc(CC)cc3)cc12` here?
A: inconclusive: 7.08 µM [inhibitor, partial curve]

Q: With `CCCc1c(C(=O)NNc2ccc(C)cc2)cnn1-c1ccccc1` as the compound, how does the Potency read?
A: inconclusive: 5.62 µM [inhibitor, full curve]

Q: For `Cc1ccc(OCCSc2nc3ccc(NC(=O)c4cccs4)cc3s2)cc1`, which Potency is on record?
A: inactive

Q: For `CCc1ccc(Nc2n[n+](-c3ccccc3)c(-c3ccc(C(=O)O)cc3)s2)cc1`, which Potency is on record?
A: inconclusive: 6.31 µM [inhibitor, partial curve, poor fit]

Q: Which Potency does the source give for `COc1cc(/C=C/C(=O)c2ccc3c(c2)OCO3)cc(OC)c1OC` here?
A: inconclusive: 11.2 µM [inhibitor, single point]

Q: Which Potency does the source give for `Cc1ccc(-n2nnnc2SCC(=O)Nc2nc(-c3ccc(F)cc3)cs2)cc1C` here?
A: inconclusive: 3.55 µM [inhibitor, partial curve, poor fit]
